Out of some 39,000 compounds screened, about 220 (0.56%) showed activity. Some of the results follow.
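Note: static incubation at 37 °C against the wild-type strain, values averaged over two biological replicates.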

For the test, the system named is Escherichia coli K-12 BW25113. Briefly: relative growth (OD600 normalised to plate interquartile mean) (fraction); higher = less growth inhibition, active = 0.2 or less. The note with it: 50 µM; LB; incubation time: overnight (16-24 h).
Take `C[C@H]1CN([C@@H](C)CO)C(=O)c2cc(C#Cc3cccnc3)cnc2O[C@H]1CN(C)S(=O)(=O)c1ccccc1F`: the relative growth is inactive: 0.986.
On to `NC(=O)[C@@H]1CCCN1C(=O)[C@H](Cc1c[nH]cn1)NC(=O)[C@@H]1CCC(=O)N1`, for which the relative growth is inactive: 1.05.
Take `COc1ccc(S(=O)(=O)N(C)C[C@H]2Oc3ccc(NS(=O)(=O)c4cn(C)cn4)cc3CC(=O)N([C@@H](C)CO)C[C@H]2C)cc1`: the relative growth was inactive: 0.997.
On to `O=C(O)CCCCCCC(=O)Nc1ccc([C@H]2O[C@@H](CSc3nc(-c4ccccc4)c(-c4ccccc4)o3)C[C@@H](c3ccc(CO)cc3)O2)cc1`, for which the relative growth was inactive: 0.968.
For the compound `CC(=O)n1cc([C@@H]2C=C(C(=O)N3CCCCCCC3)O[C@H](OCc3ccc(CO)cc3)C2)c2ccccc21`, the relative growth is inactive: 1.03.
Regarding `CCCCCCCCCC(=O)O`, the relative growth is inactive: 1.02.
Then `C[C@H](CO)N1C[C@H](C)[C@H](CN(C)Cc2ccc(C(=O)O)cc2)Oc2ccc(NS(=O)(=O)c3ccccc3)cc2CC1=O`, with inactive: 0.981.
`Nc1nc2c(ncn2COC(CO)CO)c(=O)[nH]1.O`: the relative growth was inactive: 1.05.
As to `C[C@@H]1CN([C@@H](C)CO)C(=O)c2cc(NC(=O)Nc3cccc4ccccc34)ccc2O[C@@H](C)CCCCO[C@@H]1CN(C)Cc1ccc2c(c1)OCO2`, the relative growth was inactive: 1.02.
Then `C[C@H](CO)N1C[C@H](C)[C@@H](CN(C)Cc2ccccc2)Oc2ccc(NC(=O)CCN3CCOCC3)cc2CC1=O`, with inactive: 0.988.
For `C[C@H](CO)N1C[C@H](C)[C@@H](CN(C)C(=O)c2cnccn2)Oc2ncc(C#CCN(C)C)cc2C1=O`, the relative growth was inactive: 1.01.
For the compound `CC1(C)[C@@H](O[C@H]2O[C@H](C(=O)O)[C@@H](O)[C@H](O)[C@H]2O[C@@H]2O[C@H](C(=O)O)[C@@H](O)[C@H](O)[C@H]2O)CC[C@]2(C)[C@H]3C(=O)C=C4[C@@H]5C[C@@](C)(C(=O)O)CC[C@]5(C)CC[C@@]4(C)[C@]3(C)CC[C@@H]12`, the relative growth is inactive: 0.984.
Then `COc1ccc(S(=O)(=O)N(C)C[C@H]2OCCCC[C@@H](C)Oc3ccc(NS(=O)(=O)c4cn(C)cn4)cc3C(=O)N([C@H](C)CO)C[C@@H]2C)cc1`, with inactive: 0.998; and `Cc1cccn2c(CN)cnc12`, with inactive: 1.06; and `CCC[C@@H](O)C#Cc1cnc2c(c1)C(=O)N([C@H](C)CO)C[C@H](C)[C@H](CN(C)C(=O)NC1CCCCC1)O2`, with inactive: 0.993.
As for `O=C(C[C@H]1CC[C@@H](NC(=O)Nc2ccc3c(c2)OCO3)[C@@H](CO)O1)NCCCN1CCOCC1`, the relative growth is inactive: 1.02.
As for `C/C=C/c1ccc2c(c1)O[C@H](CN(C)S(=O)(=O)c1ccc(F)cc1)[C@H](C)CN([C@@H](C)CO)S2(=O)=O`, the relative growth is inactive: 1.
With `Nc1nc(Nc2ccccc2)nc2c1ncn2[C@@H]1O[C@H](CO)[C@@H](O)[C@H]1O`, the relative growth is inactive: 1.
As for `C[C@H](CO)N1C[C@H](C)[C@H](CN(C)C(=O)Nc2ccccc2)OCCCC[C@H](C)Oc2ccc(NC(=O)Nc3ccc(C(F)(F)F)cc3)cc2C1=O`, the relative growth is inactive: 1.02.
In the case of `C[C@H](CO)N1C[C@H](C)[C@@H](CN(C)Cc2ccc(C(=O)O)cc2)Oc2ccc(NC(=O)Nc3ccc(C(F)(F)F)cc3)cc2CC1=O`, the relative growth is inactive: 0.994.
Take `NC(=O)c1ccc2nc(-c3ccc(C4(N)CCC4)cc3)c(-c3ccccc3)n2n1`: the relative growth was inactive: 0.989.
Then `C[C@@H]1CCCCO[C@H](CN(C)Cc2ccc(C(=O)Nc3ccccc3N)cc2)[C@@H](C)CN([C@@H](C)CO)C(=O)c2cc(NC(=O)Nc3ccc(C(F)(F)F)cc3)ccc2O1`, with inactive: 1.03; and `C[C@@H]1CCCCO[C@H](CN(C)S(=O)(=O)c2ccc(Cl)cc2)[C@@H](C)CN([C@H](C)CO)C(=O)c2cc(NS(=O)(=O)c3ccccc3)ccc2O1`, with inactive: 1.01; and `COc1ccc(S(=O)(=O)N2[C@@H]3CC[C@@H](C3)[C@H]2c2nc3cccc(OCc4ccccc4)c3[nH]2)cc1OC`, with inactive: 0.976.
For `CC(C)NC(=O)N(C)C[C@@H]1Oc2ccc(NC(=O)Cn3cnnn3)cc2CC(=O)N([C@H](C)CO)C[C@H]1C`, the relative growth was inactive: 1.01.
As to `C[C@H]1CN([C@@H](C)CO)C(=O)Cc2cc(NC(=O)CCC(F)(F)F)ccc2O[C@@H]1CN(C)C(=O)Nc1ccc(C(F)(F)F)cc1`, the relative growth was inactive: 0.964.
`Cc1noc(C)c1S(=O)(=O)Nc1ccc2c(c1)C(=O)N([C@H](C)CO)C[C@@H](C)[C@H](CN(C)Cc1ccc(Oc3ccccc3)cc1)O2`: the relative growth is inactive: 0.999.
Then `C=CCOc1nc(NCC)nc(N(C)C)n1`, with inactive: 0.943; and `CC(C)(O)CCC(O)C(C)(O)C1CCC2(O)C3=CC(=O)C4CC(O)C(O)CC4(C)C3CCC12C` (centres undefined), with inactive: 1.09; and `Cc1noc(C)c1NC(=O)N(C)C[C@H]1OCCCC[C@H](C)Oc2ccc(NC(=O)Nc3cccc4ccccc34)cc2C(=O)N([C@H](C)CO)C[C@@H]1C`, with inactive: 1.01.
Regarding `C[C@H](CO)N1C[C@H](C)[C@H](CN(C)Cc2ccc(Cl)c(Cl)c2)Oc2c(NC(=O)Nc3cccc4ccccc34)cccc2C1=O`, the relative growth is inactive: 1.01.
Then `C[C@H]1CN([C@@H](C)CO)C(=O)Cc2cc(NC(=O)Cn3cnnn3)ccc2O[C@@H]1CN(C)Cc1ccccc1`, with inactive: 1.
Then `Cc1noc(C)c1S(=O)(=O)N(C)C[C@H]1Oc2ccc(NC(=O)NC3CCCCC3)cc2CC(=O)N([C@@H](C)CO)C[C@H]1C`, with inactive: 1.02; and `CO[C@H]1CN(C)C(=O)c2cc(NC(=O)Nc3ccc(Cl)cc3)ccc2OC[C@@H](C)N(C(=O)Nc2c(C)noc2C)C[C@@H]1C`, with inactive: 0.989.
As to `COc1cccc(-c2ccc3c(c2)O[C@@H](CN(C)C(=O)C2CCC2)[C@H](C)CN([C@@H](C)CO)S3(=O)=O)c1`, the relative growth was inactive: 1.03.
As for `O=CN1CCN(C(=O)c2ccccc2)CC1`, the relative growth is inactive: 0.978.
For the compound `CC(C)CCCC(C)C1CCC2C3CCC4CC(=O)CCC4(C)C3CCC12C` (centres undefined), the relative growth was inactive: 0.894.
Regarding `OCC1CCNCC1`, the relative growth is inactive: 0.997.
Then `Cc1noc(C)c1NC(=O)N(C)C[C@H]1OCCCC[C@@H](C)Oc2ccc(NC(=O)CCC(F)(F)F)cc2C(=O)N([C@@H](C)CO)C[C@H]1C`, with inactive: 1.

The values are drawn from the supplement of paper PMC9446081.
